Test results from article PMC13399123.
Results are given in words; binding and its absence hold for the method and conditions named. Binding seen in cells or lysates may run through a third protein. Some results given as binding are weak or reduced against the parent protein; the word gives no strength. Sequences can lack the tags named with a protein.

By UniProt entry, the sequences of proteins in these tests, tags left out.
UniProt Q14247: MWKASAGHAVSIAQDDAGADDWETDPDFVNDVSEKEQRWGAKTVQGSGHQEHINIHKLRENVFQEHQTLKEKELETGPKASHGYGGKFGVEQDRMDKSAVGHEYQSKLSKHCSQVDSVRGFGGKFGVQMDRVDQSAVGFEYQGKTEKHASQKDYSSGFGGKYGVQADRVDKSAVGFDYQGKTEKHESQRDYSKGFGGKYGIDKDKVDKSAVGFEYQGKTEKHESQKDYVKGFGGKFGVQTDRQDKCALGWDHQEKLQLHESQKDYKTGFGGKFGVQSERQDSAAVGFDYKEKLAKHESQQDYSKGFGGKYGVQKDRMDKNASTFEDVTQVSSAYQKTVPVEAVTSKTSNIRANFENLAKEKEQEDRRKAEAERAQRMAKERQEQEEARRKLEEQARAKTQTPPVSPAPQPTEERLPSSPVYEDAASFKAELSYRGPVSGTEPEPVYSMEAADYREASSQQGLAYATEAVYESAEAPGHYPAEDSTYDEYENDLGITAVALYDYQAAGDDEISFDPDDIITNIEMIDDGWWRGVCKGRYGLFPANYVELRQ

Molecular target: T1, EGFP-HS1BP3 WT (UniProt Q53T59)
T1 sequence: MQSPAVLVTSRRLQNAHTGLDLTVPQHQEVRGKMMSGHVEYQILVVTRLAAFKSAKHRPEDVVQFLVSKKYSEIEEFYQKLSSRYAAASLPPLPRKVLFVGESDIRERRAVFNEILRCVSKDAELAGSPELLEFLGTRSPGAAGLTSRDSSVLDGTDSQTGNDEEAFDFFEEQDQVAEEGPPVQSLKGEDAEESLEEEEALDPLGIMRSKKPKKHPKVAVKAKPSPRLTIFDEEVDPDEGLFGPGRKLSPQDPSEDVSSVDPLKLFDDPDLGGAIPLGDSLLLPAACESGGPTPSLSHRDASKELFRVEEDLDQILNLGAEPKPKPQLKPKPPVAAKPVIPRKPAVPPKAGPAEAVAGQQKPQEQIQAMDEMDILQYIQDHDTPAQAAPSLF
Test: co-IP; GFP-Trap agarose beads, at least 450 ug MKN-74 lysate in RIPA buffer, 2.5 h, four washes in RIPA buffer, immunoblot; for TKS5-EGFP in MKN-74 WT and HS1BP3 KO cells

With “cortactin (CTTN), endogenous in MKN-74 cells (from UniProt Q14247 1-550)” the binding was “binds”.
